Test results from PMC4336329 (PLoS ONE, 2015).
About 2,200 (0.71%) of roughly 310,000 compounds showed an effect of 50% or more. The effect is printed as a negative number. The list shows a part of the results.

These compounds were tested against human ether-à-go-go-related gene (hERG) potassium channel (human, UniProt Q12809) (assay: primary screen, population patch clamp on CHO cells stably expressing hERG).
human ether-à-go-go-related gene (hERG) potassium channel, sequence (Q12809 whole entry, looked up): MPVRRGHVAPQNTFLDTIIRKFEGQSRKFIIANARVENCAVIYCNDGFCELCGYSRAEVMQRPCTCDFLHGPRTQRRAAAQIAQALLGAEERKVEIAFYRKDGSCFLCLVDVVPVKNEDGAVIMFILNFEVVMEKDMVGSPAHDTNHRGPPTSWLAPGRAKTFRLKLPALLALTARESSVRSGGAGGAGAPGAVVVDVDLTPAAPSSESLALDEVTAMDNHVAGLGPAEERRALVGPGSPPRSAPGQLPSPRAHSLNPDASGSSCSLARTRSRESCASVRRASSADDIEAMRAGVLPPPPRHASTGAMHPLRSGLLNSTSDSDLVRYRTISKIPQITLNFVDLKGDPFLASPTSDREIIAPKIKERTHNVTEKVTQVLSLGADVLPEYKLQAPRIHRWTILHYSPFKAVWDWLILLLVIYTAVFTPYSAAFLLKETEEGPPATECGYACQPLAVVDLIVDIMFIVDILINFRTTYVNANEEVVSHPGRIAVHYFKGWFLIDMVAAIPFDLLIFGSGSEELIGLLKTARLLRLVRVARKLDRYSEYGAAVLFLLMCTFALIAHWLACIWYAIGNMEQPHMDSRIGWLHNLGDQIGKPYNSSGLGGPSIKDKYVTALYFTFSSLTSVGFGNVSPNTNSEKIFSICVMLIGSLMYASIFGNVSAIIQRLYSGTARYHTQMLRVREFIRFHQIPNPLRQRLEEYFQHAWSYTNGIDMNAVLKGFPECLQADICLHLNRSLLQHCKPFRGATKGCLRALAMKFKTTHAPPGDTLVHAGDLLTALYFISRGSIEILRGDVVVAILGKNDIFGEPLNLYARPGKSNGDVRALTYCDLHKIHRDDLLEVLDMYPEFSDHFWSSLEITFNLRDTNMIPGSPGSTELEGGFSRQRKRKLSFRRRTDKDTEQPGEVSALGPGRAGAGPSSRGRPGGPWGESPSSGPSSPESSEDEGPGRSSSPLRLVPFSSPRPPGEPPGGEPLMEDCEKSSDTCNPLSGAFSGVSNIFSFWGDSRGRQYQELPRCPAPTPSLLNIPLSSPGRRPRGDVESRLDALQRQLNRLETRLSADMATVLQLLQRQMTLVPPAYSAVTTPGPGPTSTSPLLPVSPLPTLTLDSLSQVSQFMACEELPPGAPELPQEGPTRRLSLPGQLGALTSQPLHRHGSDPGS

Row | SMILES | hERG current change (%, negative = inhibition) at 1uM [%]
1 | CCOC(=O)/C(=C/c1ccco1)NC(=O)c1ccc(Br)o1 | 13.4
2 | Cc1cc2c(=O)n(CC(=O)N3CCN(c4ccccc4)CC3)cnc2s1 | 10.1
3 | Cc1nc2ccccc2c(=O)n1/N=C/c1ccc(O)cc1 | 13.9
4 | COc1cc(Cl)c(C)cc1NC(=S)NN | 13.1
5 | O=c1cc(O)c2sc3nc4c(c(C(F)(F)F)c3c2[nH]1)CCCCC4 | -12.1
6 | Cc1nc2c(-c3ccc(F)cc3)c(C)nn2c(C)c1CCC(=O)N1CCN(c2ccc(F)cc2)CC1 | -49.3
7 | CN(C)C(CNC(=O)NC1CCCCC1)c1cccnc1 (centres unmarked) | 10.4
8 | CCC(=O)N1CC2(CC(c3cccc([N+](=O)[O-])c3)=NO2)C[C@H]1C(=O)NCC(N)=O (some centres unmarked) | 8.22
9 | Cc1cccc(-c2nnc3n2N=C(c2ccccc2Br)CS3)c1 | -8.2
10 | Cc1ccc(-c2csc3nnc(SCc4csc(C)n4)n23)cc1 | -6.06
11 | COc1ccc(-c2cccc(C(=O)Nc3ccccc3C)c2)cc1 | -1.41
12 | Cc1ccccc1NC(=S)NC(=O)COc1ccccc1C | 14.2
13 | COc1ccccc1N=Nc1ccc(N)c(C)c1 | 12.4
14 | CC(Oc1ccc(Br)cc1)C(=O)Nc1cc(Cl)ccc1N1CCN(C)CC1 (centres unmarked) | 12.2
15 | COCCNC(=O)c1ccc(CS(=O)(=O)c2ccc(OC)cc2)o1 | 8.32
16 | COc1cc(-c2nc(CN3CCN(c4ncccn4)CC3)c(C)o2)ccc1F | 4.25
17 | Cn1cc(Cl)c(/C=C(\C#N)S(=O)(=O)c2ccccc2)n1 | 9.02
18 | COCCNC(=O)C(C)OC(=O)c1cc2occc2n1C (centres unmarked) | 5.61
19 | COc1ccccc1C(=O)Nc1ccc2c(c1)C(=O)NC2=O | 4.53
20 | COc1ccc(/C=N/Nc2nnc(-c3ncc[nH]3)c3ccccc23)cc1 | 12.6
21 | CCCCOC(=O)Nc1ccc(S(=O)(=O)Nc2ccc([N+](=O)[O-])cc2)cc1 | 9.32
22 | Cc1ccc(-n2nc3c(=O)n(CC(=O)NCc4ccc(C)o4)nc(C)c3c2C)cc1 | 16.4

Row | SMILES | hERG current change (%, negative = inhibition) at 1uM [%]
23 | O=C(CN1C(=O)COc2ccccc21)Nc1ccccc1F | 12.5
24 | CC(C)c1onc(C(=O)Nc2sc3c(c2C#N)CCC3)c1[N+](=O)[O-] | 12.5
25 | O=C(Nc1ccccc1F)c1cc(-c2ccco2)nc2ccccc12 | 15.6
26 | O=c1c2ccccc2nc(-c2ccc(F)cc2)n1NCc1ccccc1O | -9.05
27 | Cc1ccc(OCC(=O)NNC(=O)c2cc3ccccc3o2)cc1C | 11.2
28 | CCOC(=O)[C@H]1[C@H]2COc3ccc(Br)cc3[C@@H]2N2C(=O)CN(Cc3ccc(C)cc3)C(=O)[C@@]12C | 8.67
29 | COc1ccc(S(=O)(=O)NC(C(C)C)C(C)C)cc1OC | 2.63
30 | CCN(CCS(=O)(=O)c1ccc(Cl)cc1)C(=O)Nc1ccc(Cl)cc1 | -4.05
31 | CCCCn1c(=O)[nH]c(=O)c2c1nc(-c1ccc(CC)c([N+](=O)[O-])c1)n2C | 6.84
32 | O=C(/C=C/c1cccc(Cl)c1)N1CCC(Cc2ccccc2)CC1 | 3.8
33 | COC(CNS(=O)(=O)c1cc2c3c(c1)CCN3C(=O)CC2)OC | 17.5
34 | C[C@@]12CCC3[C@@](CCC4[C@@]3(C)CCC[C@@]4(C)C(=O)O)(CC1=O)C2 (some centres unmarked) | 6.51
35 | CCN(CC(=O)Nc1ccccc1OC)C(=O)CSCC(=O)Nc1ccc(OC)cc1 | 10.4
36 | Cc1ccc(N/C(N)=N/c2nc(CSc3nnc(C)s3)cc(=O)[nH]2)c(C)c1 | 9.08
37 | COc1ccccc1CC(=O)Nc1ccc2c(c1)C(=O)NC2=O | 7.55
38 | CCOC(=O)C1CCN(C(=O)CN(c2ccc3c(c2)OCCO3)S(C)(=O)=O)CC1 | 1.17
39 | Cc1cccc(CN2CCN(C(=O)CCc3nnc(C4CCCCC4)o3)CC2)c1 | 4.62
40 | COC(=O)c1ccc(C2c3[nH]c4ccccc4c3C[C@H]3C(=O)N(C4CC4)CC(=O)N23)cc1 (some centres unmarked) | -0.703
41 | CCOC(=O)C(NC(=O)c1ccc(OC)cc1)(Nc1cc(C)on1)C(F)(F)F (centres unmarked) | 4.95
42 | Cc1nn(-c2ccccc2)c(N)c1C1(O)C(=O)Nc2ccccc21 (centres unmarked) | 7.74
43 | COC(=O)C1=C(C)NC(C)=C(C(=O)OCC2CCCO2)C1c1cccc(Cl)c1 (centres unmarked) | 12
44 | Cn1cc(S(=O)(=O)N2CCN(c3ccccc3F)CC2)c(=O)n(C)c1=O | 13.9
